# The campaign covered roughly 410,000 compounds. About 5,000 (1.2%) were called active. This list was built around the results that the source calls inconclusive (neither active nor inactive); the mix of calls is not that of the screen. Calls come from the whole dose curve; as a rule, active = well fitted inhibition curve with a large enough effect; inconclusive = small, poorly fitted or top-dose-only effect; inactive = no such curve, though single readings can be large or run the other way. Potencies of inconclusive entries are doubtful fits and often do not repeat.
# Experiment: qHTS for Inhibitors of TGF-b; note: nearly all actives have a fitted effect of over 65% in size
# Settings: HepG2 CAGA-GFP TGF-b/SMAD3 reporter, GFP fluorescence, 18 h, TGF-beta stimulated, 500 pg/mL final; series mostly up to 46.1 µM
# In short: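 Read-out: total well GFP (ex488/em500-530) summed from mean per-cell fluorescence. Cells: HEPG2 CAGA-GFP, 1% FBS DMEM, 18 h at 37 degrees C with 500 pg/mL final TGF-beta. Unstimulated wells served as the full-inhibition control; stimulated DMSO wells = 0%.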
# Potency is the fitted concentration of half-maximal effect; tags give direction and shape of the fitted curve.
row,Compound,Potency
1,O=Cc1cn(Cc2cccc([N+](=O)[O-])c2)c2ccccc12,active: 0.708 µM
2,COC(=O)C1=C(c2cc3ccccc3o2)C[C@@H]2CC[C@H]1N2C(=O)NCc1ccc(F)cc1,"inconclusive: 11.2 µM [inhibitor, single point]"
3,Oc1ccccc1CN(CCc1ccccc1)Cc1ccccc1,"inconclusive: 35.5 µM [inhibitor, single point]"
4,CCC(C)N1C(=O)NC(=O)C2(Cc3cc(C)ccc3N(C)C2)C1=O (stereo not drawn),"inconclusive: 1.26 µM [inhibitor, full curve, poor fit]"
5,O=[N+]([O-])c1cc(O)c(O)c([N+](=O)[O-])c1,inactive
6,NS(=O)(=O)c1ccc(N=Cc2c(O)n(-c3ccccc3)c(=O)[nH]c2=O)cc1,"inconclusive: 6.31 µM [inhibitor, single point]"
7,CCC(=NCCc1c[nH]c2ccccc12)c1c(O)n(-c2ccc(C)cc2)c(=O)[nH]c1=O,inactive
8,Cc1ccc(-c2cc(C(F)F)n3ncc(C(=O)N4CCC5(CC4)OCCO5)c3n2)cc1,"inconclusive: 3.55 µM [inhibitor, single point]"
9,NCC(=O)c1cccc([N+](=O)[O-])c1,"inconclusive: 20 µM [inhibitor, single point]"
10,O=C(Nc1ccc(OC(F)(F)F)cc1)Oc1ccccc1N1CCCCC1,active: 12.6 µM
11,CC(O)C1C=CC=CC(=O)OC2CC3OC4C5OC5(C)CCC4(COC(=O)C4OC4(C)C(O)CO1)C2(C)C31CO1 (stereo not drawn),active: 0.251 µM
12,O=C1NC(=O)N(Cc2ccco2)C(=O)/C1=C/c1ccc(-c2cccc([N+](=O)[O-])c2)o1,inactive
13,COc1ccccc1NC(=O)N(Cc1ccc2c(c1)OCO2)C1CCN(Cc2ccccc2)CC1,active: 8.91 µM
14,CC(C)CN1Cc2cc(-c3cccc(F)c3)ccc2-n2nncc2C1,"inconclusive: 35.5 µM [inhibitor, single point]"
15,Ic1ccccc1CN[C@@H]1C2CCN(CC2)[C@@H]1C(c1ccccc1)c1ccccc1,"inconclusive: 35.5 µM [inhibitor, single point]"
16,CCCCOc1ccc(CNC(=O)c2cc3n(n2)CCCN(Cc2ccc(C)cc2)C3=O)cc1,"inconclusive: 11.2 µM [inhibitor, partial curve, poor fit]"
17,COc1ccc(N2CCN(C(=O)C3CCCN(S(=O)(=O)c4ccc5c(c4)CCCN5C(C)=O)C3)CC2)cc1 (stereo not drawn),"inconclusive: 28.2 µM [inhibitor, single point]"
18,C=Cc1cc(OC)c2c(c1)c(=O)oc1c2cc(OC)c2c(O)ccc(C3OC(C)C(O)C(C)(O)C3O)c21 (stereo not drawn),active: 1.41 µM
19,c1ccc(NC2=NCCCS2)cc1,inactive
20,O=C(Nc1ccc2c(c1)OCO2)c1cccn(Cc2cccc(F)c2)c1=O,"inconclusive: 6.31 µM [inhibitor, single point]"
21,C#CCCC[C@@H]1OC(=O)CNC(=O)C([C@@H](C)CC)NC(=O)[C@@H]2CCCN2C(=O)C([C@@H](C)CC)OC(=O)[C@H](Cc2ccccc2)N(C)C(=O)[C@H](C(C)C)NC(=O)C1(C)C (stereo partly drawn),"inconclusive: 15.8 µM [inhibitor, partial curve, poor fit]"

row,Compound,Potency
1,C[C@H]1CCC/C=C/C2C[C@H](O)CC2[C@H](O)/C=C/C(=O)O1 (stereo partly drawn),active: 0.1 µM
2,CC1OC(O[C@H]2C[C@@H](O)[C@]3(CO)[C@H]4[C@H](O)C[C@]5(C)[C@@H](C6=CC(=O)OC6)CC[C@]5(O)[C@@H]4CC[C@]3(O)C2)C(O)C(O)C1O (stereo partly drawn),active: 0.562 µM
3,CCOC(=O)N1CCC(NC(=O)c2ccc3c(c2)N(Cc2cccc(C)c2)C(=O)c2ccccc2S3(=O)=O)CC1,"inconclusive: 35.5 µM [inhibitor, single point]"
4,CC1=C(C/C(C)=C/c2ccccc2)/C(=C/CO)[C@@H]2OC(=O)O[C@]2(C)C12CC2,"inconclusive: 5.62 µM [inhibitor, single point]"
5,CCCCCCCSc1cc(OC)c(CCNC)cc1OC,"inconclusive: 17.8 µM [inhibitor, partial curve, poor fit]"
6,Cc1cc(C)[n+](C2C3CC4CC(C3)CC2C4)o1 (stereo not drawn),inactive
7,CCOP(=S)(OCC)SCSP(=S)(OCC)OCC,"inconclusive: 35.5 µM [inhibitor, single point]"
8,CN(C)CCNC(=O)C(=O)NCC1OCCCN1S(=O)(=O)c1cccs1 (stereo not drawn),"inconclusive: 5.62 µM [inhibitor, single point]"
9,NC1=NC(c2cccnc2)n2c(nc3ccccc32)N1 (stereo not drawn),"inconclusive: 4.47 µM [inhibitor, full curve, poor fit]"
10,CCc1ccc(-n2c(SC(CC)C(=O)N(CC)CC)nc3n[nH]c(C)c3c2=N)cc1 (stereo not drawn),"inconclusive: 3.55 µM [inhibitor, single point]"
11,CN1CCN(c2nc(N(C)C)oc(=O)c2C#N)CC1,"inconclusive: 6.31 µM [inhibitor, full curve, poor fit]"
12,CCC1(C)CC(CCNCc2ccc(N(C)C)cc2)(c2ccc(F)cc2)CCO1 (stereo not drawn),"inconclusive: 31.6 µM [inhibitor, single point]"
13,CC(Oc1ccc(Cl)cc1Cl)C(=O)Nc1ccc(S(=O)(=O)Nc2cnc3ccccc3n2)cc1 (stereo not drawn),"inconclusive: 7.94 µM [inhibitor, partial curve, poor fit]"
14,COc1ccc(-n2nnnc2C(c2cc3ccccc3o2)N2CCC(n3c(=O)[nH]c4ccccc43)CC2)cc1 (stereo not drawn),"inconclusive: 11.2 µM [inhibitor, partial curve, poor fit]"
15,Cc1ncoc1C(=O)NCC1=C(c2ccc(S(C)(=O)=O)cc2)C[C@@H]2CC[C@H]1N2Cc1ccco1,inactive
16,NCC(=O)c1ccc(Br)cc1,"inconclusive: 35.5 µM [inhibitor, single point]"
17,CN(C)CC1Oc2ccccc2OC1(O)c1ccccc1 (stereo not drawn),active: 2.82 µM
18,Cc1ccccc1C(=O)Nc1ccc2nc(SCC(=O)N(C)c3ccccc3)sc2c1,"inconclusive: 35.5 µM [inhibitor, partial curve, poor fit]"
19,C#CCOCOCC#CCN(CC)CC,"inconclusive: 35.5 µM [inhibitor, single point]"
20,Nc1ccc(Cl)cc1C(=O)c1ccccc1Cl,"inconclusive: 35.5 µM [inhibitor, single point]"
21,COCCCN1Cc2ccccc2C1=N,inactive

row,Compound,Potency
1,CC/C(=N\NC(N)=O)c1c(O)[nH]c(=O)[nH]c1=O,"inconclusive: 3.16 µM [inhibitor, single point]"
2,COc1ccc(-n2nnnc2C(CCSC)N2CCC(n3c(=O)[nH]c4ccccc43)CC2)cc1 (stereo not drawn),"inconclusive: 15.8 µM [inhibitor, single point]"
3,CC(=O)O[C@H]1C(=O)[C@@]2(C)C([C@H](OC(=O)c3ccccc3)[C@]3(O)C[C@H](OC(=O)[C@H](O)[C@@H](NC(=O)Cc4ccccc4)c4ccccc4)C(C)=C1C3(C)C)[C@]1(OC(C)=O)CO[C@@H]1C[C@@H]2O (stereo partly drawn),"inconclusive: 1.58 µM [inhibitor, full curve, poor fit]"
4,CCc1ccc(CNCCc2ccc(F)cc2)cc1,inactive
5,O=c1[nH]c2ccccc2n1C1CCN(C(c2cccs2)c2nnnn2Cc2ccccc2)CC1 (stereo not drawn),"inconclusive: 17.8 µM [inhibitor, single point]"
6,CCCCCCC[n+]1ccc(-c2cc[n+](CCCCCCC)cc2)cc1,inactive
7,CCOC(=O)CN1C(=O)N[C@@H](c2cccc(C(F)(F)F)c2)C(C(C)=O)=C1C,"inconclusive: 5.62 µM [inhibitor, single point]"
8,COc1cc(/C=C/[N+](=O)[O-])ccc1O,"inconclusive: 28.2 µM [inhibitor, single point]"
9,COC(=O)C1=C(c2ccc(OC(F)(F)F)cc2)C[C@@H]2CC[C@H]1N2C(=O)N1CCCCC1,"inconclusive: 2.82 µM [inhibitor, full curve]"
10,Cn1cc(C(=O)c2ccccc2)c2ccccc21,inactive
11,CC(C)Oc1ccc(C2(C#N)CC[N+](C)(C)CC2)cc1,"inconclusive: 15.8 µM [inhibitor, single point]"
12,COC(=O)C1=C(c2cccc(C#N)c2)C[C@@H]2CC[C@H]1N2C(=O)NC1CC1,"inconclusive: 22.4 µM [inhibitor, single point]"
13,O=C(Oc1ccc(Cl)c2cccnc12)N1CCCCCC1,"inconclusive: 35.5 µM [inhibitor, single point]"
14,Cc1cccnc1NC1=NCC(C)S1 (stereo not drawn),inactive
15,COc1ccc2[nH]c(C)c(CCN3CCC(=O)C(C)C3C)c2c1 (stereo not drawn),"inconclusive: 35.5 µM [inhibitor, single point]"
16,CC1C(c2cccs2)=[N+]([O-])C(C)(C(=O)c2ccc(F)cc2)N1O (stereo not drawn),"inconclusive: 11.2 µM [inhibitor, single point]"
17,Cc1ccc(Cl)cc1N1CCN(C(=O)C2CCN(Cc3nc(-c4ccc(Cl)cc4)oc3C)CC2)CC1,"inconclusive: 3.55 µM [inhibitor, full curve, poor fit]"
18,CC(C)n1c(/C=C/[C@H](O)C[C@H](O)CC(=O)O)c(-c2ccc(F)cc2)c2ccccc21,inactive
19,COC(=O)C1=C(c2ccc(OC(F)(F)F)cc2)C[C@@H]2CC[C@H]1N2C(=O)NCc1ccc(F)cc1,"inconclusive: 10 µM [inhibitor, partial curve, poor fit]"
20,Cc1cccc(N2CCc3c2nc2ccccc2c3N)c1,"inconclusive: 35.5 µM [inhibitor, single point]"
21,Cc1[nH]n(-c2ccccc2)c(=O)c1C(c1ccc([N+](=O)[O-])cc1)c1c(C)[nH]n(-c2ccccc2)c1=O,"inconclusive: 17.8 µM [inhibitor, partial curve, poor fit]"

# Source: PubChem BioAssay AID588855 (National Center for Advancing Translational Sciences (NCATS), 2011)
